According to patent US20260258029A1, “CHROMANE AMIDINE MONOBACTAM COMPOUNDS FOR THE TREATMENT OF BACTERIAL INFECTIONS” (priority 2022, published 2026):
At least one read-out could not be matched to a standard name with certainty.

Experiments:
Format in all cases: cell-based
[1] = tested on: Escherichia coli expressing NDM-1 (CLB30016); assay: Growth inhibitory concentration (OD600), E. coli CLB30016, with relebactam; conditions: lowest concentration inhibiting 95% of bacterial growth, BLi relebactam 4 μg/mL, 35±2° C., 22 hours
Description: (§1) The concentrations of compounds required to inhibit the growth of various strains of bacteria were determined in an assay that assessed bacterial growth by measuring optical density at 600 nm (OD600). The bacterial strains tested included the clinical strains Escherichia coli expressing NDM-1 (CLB30016), Klebsiella pneumoniae expressing KPC-1 (CL6569), Acinetobacter baumannii expressing TEM-1, AmpC, and Oxa-24/40 (CL6188) and Pseudomonas aeruginosa expressing AmpC (CL5701). All compounds were tested in the presence of a R lactamase inhibitor (BLi, Relebactam) in 384-well microplates.
(§2) The clinical strains were stored as frozen single use stocks, thawed and diluted into 1.1× cation-adjusted Mueller-Hinton II broth to achieve approximately 2×10^5 CFU/mL. Test compounds were dissolved in DMSO and diluted 1:50 in the assay, resulting in a final concentration range of 100 μM to 0.098 μM. On the day of the assay, 1 μL of test compound was added to the plate followed by 4 μL of 50 μg/mL BLi in MOPS buffer and 45 μL of diluted bacteria. Plates were centrifuged at 1000 rpm for 30 seconds, shaken at approximately 800 rpm for 1 minute, and incubated at 35±2° C. for 22 hours. The concentration of BLi used in the assay was 4 μg/mL. At the end of the incubation, absorbance at 600 nm was determined using a spectrophotometer. Inhibition was quantitated by identifying the lowest concentration of test compound that was required to inhibit 95% of the growth of the bacteria. The results for Examples 1-39 are reported in Table I, expressed as the concentration of compound that inhibited 95% of bacterial growth (Minimum Inhibitory Threshold Concentration; MITC95).

[2] = tested on: Pseudomonas aeruginosa expressing AmpC (CL5701); assay: Growth inhibitory concentration (OD600), P. aeruginosa CL5701, with relebactam; conditions: lowest concentration inhibiting 95% of bacterial growth, BLi relebactam 4 μg/mL, 35±2° C., 22 hours
Description: as §1, §2

[3] = tested on: Acinetobacter baumannii expressing TEM-1, AmpC, and Oxa-24/40 (CL6188); conditions: lowest concentration inhibiting 95% of bacterial growth; BLi relebactam 4 μg/mL; 35±2° C., 22 hours; OD600
Description: as §1, §2

Structure (SMILES): CC1(C)[C@H](NC(=O)/C(=N\O[C@](C)(C(=O)O)[C@H]2CCc3cc(C(=N)NCC4CCC(N)CC4)ccc3O2)c2csc(N)n2)C(=O)N1OS(=O)(=O)O (stereo partly drawn) [Compound 15, (S)-2-((R)-6-(N-(((1r,4R)-4-aminocyclohexyl)methyl)carbamimidoyl)chroman-2-yl)-2-((((Z)-1-(2-aminothiazol-4-yl)-2-(((S)-2,2-dimethyl-4-oxo-1-(sulfooxy)-azetidin-3-yl)amino)-2-oxoethylidene)amino)oxy)propanoic acid]
- EC—CLB30016 MITC95 [1]: 6.25 µM
- PA—CL5701 MITC95 [2]: 3.125 µM
- AB—CL6188 MITC95 [3]: 12.5 µM

Structure (SMILES): CC1(C)[C@H](NC(=O)/C(=N\O[C@](C)(C(=O)O)[C@H]2CCc3cc(C(=N)NC[C@H]4CC[C@@H](N)CC4)ccc3O2)c2csc(N)n2)C(=O)N1OS(=O)(=O)O [Compound 16, (S)-2-((R)-6-(N-(((1s,4S)-4-aminocyclohexyl)methyl)carbamimidoyl)chroman-2-yl)-2-((((Z)-1-(2-aminothiazol-4-yl)-2-(((S)-2,2-dimethyl-4-oxo-1-(sulfooxy)-azetidin-3-yl)amino)-2-oxoethylidene)-amino)oxy)propanoic acid]
- EC—CLB30016 MITC95 [1]: 6.25 µM
- PA—CL5701 MITC95 [2]: 3.125 µM
- AB—CL6188 MITC95 [3]: 6.25 µM

Structure (SMILES): CC1(C)[C@H](NC(=O)/C(=N\O[C@](C)(C(=O)O)[C@H]2CCc3cc(C(=N)NCc4ccc(CN)cc4)ccc3O2)c2csc(N)n2)C(=O)N1OS(=O)(=O)O [Compound 17, (S)-2-((R)-6-(N-(4-(aminomethyl)benzyl)carbamimidoyl)chroman-2-yl)-2-((((Z)-1-(2-aminothiazol-4-yl)-2-(((S)-2,2-dimethyl-4-oxo-1-(sulfooxy)-azetidin-3-yl)amino)-2-oxo-ethylidene)amino)oxy)-propanoic acid]
- EC—CLB30016 MITC95 [1]: 3.125 µM
- PA—CL5701 MITC95 [2]: 1.563 µM
- AB—CL6188 MITC95 [3]: 6.25 µM

Structure (SMILES): CC1(C)[C@H](NC(=O)/C(=N\O[C@](C)(C(=O)O)[C@H]2CCc3cc(C(=N)NCc4cccc(CN)c4)ccc3O2)c2csc(N)n2)C(=O)N1OS(=O)(=O)O [Compound 18, (S)-2-((R)-6-(N-(3-(aminomethyl)benzyl)carbamimidoyl)chroman-2-yl)-2-((((Z)-1-(2-aminothiazol-4-yl)-2-(((S)-2,2-dimethyl-4-oxo-1-(sulfooxy)-azetidin-3-yl)amino)-2-oxo-ethylidene)amino)oxy)-propanoic acid]
- EC—CLB30016 MITC95 [1]: 3.125 µM
- PA—CL5701 MITC95 [2]: 1.563 µM
- AB—CL6188 MITC95 [3]: 6.25 µM

Structure (SMILES): CC1(C)[C@H](NC(=O)/C(=N\O[C@](C)(C(=O)O)[C@H]2CCc3cc(C(=N)NCC4CNC4)ccc3O2)c2csc(N)n2)C(=O)N1OS(=O)(=O)O [Compound 19, (S)-2-((((Z)-1-(2-aminothiazol-4-yl)-2-(((S)-2,2-dimethyl-4-oxo-1-(sulfooxy)azetidin-3-yl)amino)-2-oxoethylidene)amino)oxy)-2-((R)-6-(N-(azetidin-3-ylmethyl)-carbamimidoyl)chroman-2-yl)propanoic acid]
- EC—CLB30016 MITC95 [1]: 3.125 µM
- PA—CL5701 MITC95 [2]: 1.563 µM
- AB—CL6188 MITC95 [3]: 6.25 µM

Structure (SMILES): COCC1(CNC(=N)c2ccc3c(c2)CC[C@H]([C@](C)(O/N=C(\C(=O)N[C@@H]2C(=O)N(OS(=O)(=O)O)C2(C)C)c2csc(N)n2)C(=O)O)O3)CCNCC1 [Compound 20, (S)-2-((((Z)-1-(2-aminothiazol-4-yl)-2-(((S)-2,2-dimethyl-4-oxo-1-(sulfooxy)azetidin-3-yl)amino)-2-oxoethylidene)amino)oxy)-2-((R)-6-(N-((4-(methoxymethyl)-piperidin-4-yl)methyl)-carbamimidoyl)chroman-2-yl)propanoic acid]
- EC—CLB30016 MITC95 [1]: 6.25 µM
- PA—CL5701 MITC95 [2]: 3.125 µM
- AB—CL6188 MITC95 [3]: 6.25 µM

Structure (SMILES): CC1(C)[C@@H](CNC(=N)c2ccc3c(c2)CC[C@H]([C@](C)(O/N=C(\C(=O)N[C@@H]2C(=O)N(OS(=O)(=O)O)C2(C)C)c2csc(N)n2)C(=O)O)O3)C[C@H]1N [Compound 21, (S)-2-((R)-6-(N-(((1S,3R)-3-amino-2,2-dimethylcyclobutyl)methyl)carbamimidoyl)chroman-2-yl)-2-((((Z)-1-(2-aminothiazol-4-yl)-2-(((S)-2,2-dimethyl-4-oxo-1-(sulfooxy)azetidin-3-yl)amino)-2-oxoethylidene)amino)oxy)propanoic Acid]
- EC—CLB30016 MITC95 [1]: 6.25 µM
- PA—CL5701 MITC95 [2]: 3.125 µM
- AB—CL6188 MITC95 [3]: 3.125 µM

Structure (SMILES): CC1(C)[C@H](NC(=O)/C(=N\O[C@](C)(C(=O)O)[C@H]2CCc3cc(C(=N)NC[C@]4(F)CC5(C[C@H](N)C5)C4)ccc3O2)c2csc(N)n2)C(=O)N1OS(=O)(=O)O (stereo partly drawn) [Compound 24, (S)-2-((R)-6-(N-(((2R,4r,6R)-6-amino-2-fluorospiro[3.3]heptan-2-yl)methyl)-carbamimidoyl)chroman-2-yl)-2-((((Z)-1-(2-aminothiazol-4-yl)-2-(((S)-2,2-dimethyl-4-oxo-1-(sulfooxy)azetidin-3-yl)amino)-2-oxoethylidene)amino)oxy)propanoic acid]
- EC—CLB30016 MITC95 [1]: 6.25 µM
- PA—CL5701 MITC95 [2]: 3.125 µM
- AB—CL6188 MITC95 [3]: 6.25 µM

Structure (SMILES): CC1(C)[C@H](NC(=O)/C(=N\O[C@](C)(C(=O)O)[C@H]2CCc3cc(C(=N)NC[C@]4(F)CC5(C[C@H](N)C5)C4)ccc3O2)c2csc(N)n2)C(=O)N1OS(=O)(=O)O (stereo partly drawn) [Compound 25, (S)-2-((R)-6-(N-(((2S,4s,6S)-6-amino-2-fluorospiro[3.3]heptan-2-yl)methyl)-carbamimidoyl)chroman-2-yl)-2-((((Z)-1-(2-aminothiazol-4-yl)-2-(((S)-2,2-dimethyl-4-oxo-1-(sulfooxy)azetidin-3-yl)amino)-2-oxoethylidene)amino)oxy)propanoic acid]
- EC—CLB30016 MITC95 [1]: 3.125 µM
- PA—CL5701 MITC95 [2]: 1.563 µM
- AB—CL6188 MITC95 [3]: 3.125 µM

Structure (SMILES): CC1(C)[C@H](NC(=O)/C(=N\O[C@](C)(C(=O)O)[C@H]2CCc3cc(C(=N)NCCC4CCNCC4)ccc3O2)c2csc(N)n2)C(=O)N1OS(=O)(=O)O [Compound 30, (S)-2-((((Z)-1-(2-aminothiazol-4-yl)-2-(((S)-2,2-dimethyl-4-oxo-1-(sulfooxy)azetidin-3-yl)amino)-2-oxoethylidene)amino)oxy)-2-((R)-6-(N-(2-(piperidin-4-yl)ethyl)carbamimidoyl)chroman-2-yl)propanoic Acid]
- EC—CLB30016 MITC95 [1]: 6.25 µM
- PA—CL5701 MITC95 [2]: 3.125 µM
- AB—CL6188 MITC95 [3]: 6.25 µM

Structure (SMILES): CC1(C)[C@H](NC(=O)/C(=N\O[C@](C)(C(=O)O)[C@H]2CCc3cc(C(=N)NCCN4C[C@H]5C[C@@H]4CN5)ccc3O2)c2csc(N)n2)C(=O)N1OS(=O)(=O)O [Compound 33, (S)-2-((R)-6-(N-(2-((1R,4R)-2,5-diazabicyclo[2.2.1]heptan-2-yl)ethyl)carbamimidoyl)chroman-2-yl)-2-((((Z)-1-(2-aminothiazol-4-yl)-2-(((S)-2,2-dimethyl-4-oxo-1-(sulfooxy)azetidin-3-yl)amino)-2-oxoethylidene)amino)oxy)propanoic Acid]
- EC—CLB30016 MITC95 [1]: 6.25 µM
- PA—CL5701 MITC95 [2]: 3.125 µM
- AB—CL6188 MITC95 [3]: 6.25 µM

Structure (SMILES): CC1(C)[C@H](NC(=O)/C(=N\O[C@](C)(C(=O)O)[C@H]2CCc3cc(C(=N)NC[C@H]4CC[C@@H](CN)CC4)ccc3O2)c2csc(N)n2)C(=O)N1OS(=O)(=O)O [Compound 38, (S)-2-((R)-6-(N-(((1s,4S)-4-(aminomethyl)cyclohexyl)methyl)carbamimidoyl)chroman-2-yl)-2-((((Z)-1-(2-aminothiazol-4-yl)-2-(((S)-2,2-dimethyl-4-oxo-1-(sulfooxy)azetidin-3-yl)amino)-2-oxoethylidene)amino)oxy)propanoic Acid]
- EC—CLB30016 MITC95 [1]: 3.125 µM
- PA—CL5701 MITC95 [2]: 1.563 µM
- AB—CL6188 MITC95 [3]: 6.25 µM

Structure (SMILES): CC1(C)[C@H](NC(=O)/C(=N\O[C@](C)(C(=O)O)[C@H]2CCc3cc(C(=N)NC[C@H]4CC[C@H](CN)CC4)ccc3O2)c2csc(N)n2)C(=O)N1OS(=O)(=O)O [Compound 39, (S)-2-((R)-6-(N-(((1r,4R)-4-(aminomethyl)cyclohexyl)methyl)carbamimidoyl)chroman-2-yl)-2-((((Z)-1-(2-aminothiazol-4-yl)-2-(((S)-2,2-dimethyl-4-oxo-1-(sulfooxy)azetidin-3-yl)amino)-2-oxoethylidene)amino)-oxy)propanoic acid]
- EC—CLB30016 MITC95 [1]: 6.25 µM
- PA—CL5701 MITC95 [2]: 1.563 µM
- AB—CL6188 MITC95 [3]: 6.25 µM

Structure (SMILES): CC1(C)[C@H](NC(=O)/C(=N\O[C@](C)(C(=O)O)[C@H]2CCc3cc(C(=N)NCC[C@@H]4CCNC4)ccc3O2)c2csc(N)n2)C(=O)N1OS(=O)(=O)O [Compound 40, (S)-2-((((Z)-1-(2-aminothiazol-4-yl)-2-(((S)-2,2-dimethyl-4-oxo-1-(sulfooxy)azetidin-3-yl)amino)-2-oxoethylidene)-amino)oxy)-2-((R)-6-(N-(2-((S)-pyrrolidin-3-yl)ethyl)-carbamimidoyl)chroman-2-yl)propanoic acid]
- EC—CLB30016 MITC95 [1]: 6.25 µM
- PA—CL5701 MITC95 [2]: 1.563 µM
- AB—CL6188 MITC95 [3]: 3.125 µM
